SMILES strings stand for the structures. Hit rate of the full screen: of about 340,000 compounds, about 6,900 (2%) were called active. Rule as the data show it: active = inhibition above about 30%; inactive = below that, where a call was filed. The entries are a selection whose mix differs from that of the whole data set. The source gives no active or inactive call for entries shown without one.

This assay has as its target D(2) dopamine receptor (Homo sapiens) (UniProt P14416). As to the kind of experiment: HTS Assay for Allosteric Antagonists of the Human D2 Dopamine Receptor: Primary Screen for Antagonists. Also: 0% is about no effect. To be noted: HEK293 TREx D2 cells, calcium flux, dopamine EC80; at 10 µM; stronger effect = higher value. The method, boiled down: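 Dopamine at EC80 is the agonist stimulus; test compounds precede it by 180 s. Calcium flux read kinetically in a force-coupled, inducible HEK293 T-REx D2 cell line.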
Sequence of UniProt P14416 (P14416 whole entry, looked up): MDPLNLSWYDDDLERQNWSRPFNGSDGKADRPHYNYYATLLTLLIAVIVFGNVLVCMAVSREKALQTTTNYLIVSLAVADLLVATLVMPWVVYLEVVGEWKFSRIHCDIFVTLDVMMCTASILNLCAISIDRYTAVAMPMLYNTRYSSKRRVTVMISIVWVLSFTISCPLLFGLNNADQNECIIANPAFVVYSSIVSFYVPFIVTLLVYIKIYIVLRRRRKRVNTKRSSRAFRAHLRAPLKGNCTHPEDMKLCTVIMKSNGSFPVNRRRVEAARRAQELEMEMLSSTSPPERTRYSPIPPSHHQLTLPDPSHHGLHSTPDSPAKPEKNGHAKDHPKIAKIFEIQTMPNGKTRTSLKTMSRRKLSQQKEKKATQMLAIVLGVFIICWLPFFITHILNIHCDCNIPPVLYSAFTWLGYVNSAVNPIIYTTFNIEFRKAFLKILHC
(A change in cytosolic calcium serves as a functional read-out for many receptors and channels.)
As a reminder, the inhibition is the relative decrease from the control value, in per cent. As for `c1ccc(CSc2nnc(C3CCNCC3)o2)cc1`, the inhibition is -8.97%.

For `COC(=O)c1ccc(NC(=O)CCn2cccn2)cc1`, the inhibition was -5.97%.

For the compound `COc1ccc(NC(=O)C2=C(C)Nc3c(C(=O)Nc4ccc(C)cc4)cnn3C2c2cc(OC)ccc2OC)cc1` (stereo not given), the inhibition stood at 7.4%.

For the compound `Cc1cc(C)c2oc(-c3cc(NC(=O)Cc4ccccc4)ccc3Cl)nc2c1`, the inhibition is -20%.

With `COc1cccc(NC(=O)Cn2c(=O)n(Cc3ccccc3)c(=O)c3c2c2cc(C)ccc2n3C)c1`, the inhibition was determined as 4.49%.

On to `CCCN1CCc2nc(SCC(=O)Nc3ccc(C)c(Cl)c3)[nH]c(=O)c2C1`, for which the inhibition is 17.2%.

Turning to `CN(C)c1ccc(C2CC(c3c(O)n(C4CCCCC4)c(=O)[nH]c3=O)=Nc3ccccc3S2)cc1` (stereo not given), the inhibition was found to be 10.8%.

As to `CCN(CC)S(=O)(=O)c1ccc2c(c1)N(CC(=O)NCc1ccc(F)cc1)C(=O)CO2`, the inhibition is -2.91%.

On to `CCCOc1ccc(C2C(=O)N(C3CCCCCC3)CC(=O)N2Cc2ccc(OC)cc2)cc1OC` (stereo not given), for which the inhibition was -13.9%.

With `Cc1cc(N2CCN(c3cccc(C(F)(F)F)c3)CC2)n2nc(-c3ccccc3C)nc2n1`, the inhibition is -4.07%.

Regarding `Cc1ccc2oc(=O)c3cnn(CC(=O)N4CCN(c5cccc(C(F)(F)F)c5)CC4)c3c2c1`, the inhibition worked out at 11.4%.

In the case of `O=S(=O)(c1cccc(C(F)(F)F)c1)N1CCC(Oc2ccc(-n3cnnn3)cc2)CC1`, the inhibition worked out at 12.1%.

Regarding `CCC(C)NC(=O)CSc1nc2c(sc3ccccc32)c(=O)n1CCc1ccccc1` (stereo not given), the inhibition is 10.8%.

With `COc1ccc(C2C=C(c3ccccc3)Nc3nc(NS(=O)(=O)c4ccc(C)cc4)nn32)cc1` (stereo not given), the inhibition amounted to 26.1%.

Take `Cc1c(C(=O)OC2CCCCC2)[nH]c2c1C(=O)CC(c1ccccc1)C2` (stereo not given): the inhibition was 4.15%.

Turning to `Cc1ccc(OCC(=O)N(Cc2ccc(Cl)cc2)CC2CCCO2)cc1C` (stereo not given), the inhibition was found to be 0.237%.

Regarding `O=C(Nc1ccccc1C(F)(F)F)Nc1c[nH]c(=O)[nH]c1=O`, the inhibition was -6.23%.

Consider `COc1ccc(Nc2c(-c3ccco3)nc3cccc(C)n23)cc1`, for which the inhibition is 1.49%.

For `O=C(NCCC(=O)N1CCN(c2ccccn2)CC1)c1ccc(Br)cc1`, the inhibition was active: 57.6%.

For `Cc1ccc2c(C)c(C(=O)N3CCC(c4nc5ccccc5s4)CC3)oc2c1C`, the inhibition was -12.8%.

On to `COc1cc(OC)c(OC)cc1CN1CCc2nc(N3CCN(c4ccccc4F)CC3)ncc2C1`, for which the inhibition is -28.3%.

With `CCc1ccc(NC(=O)C2CCCN(S(=O)(=O)c3cccc4cccnc34)C2)cc1` (stereo not given), the inhibition is -10.9%.

Regarding `COc1ccc(S(=O)(=O)N2CCC(C(=O)NCCN3CCOCC3)CC2)cc1C`, the inhibition was active: 34.2%.

With `Cc1ccc(CNC(=O)c2sc3ncnc(N(C)C4CCCCC4)c3c2C)cc1`, the inhibition stood at 2.01%.

With `COc1cc(NC(=O)Cn2cnc(S(=O)(=O)N3CCOCC3)c2)cc(OC)c1OC`, the inhibition is active: 45.4%.

For `Cc1ccccc1NC(=O)C1CCN(S(=O)(=O)c2ccccc2)CC1`, the inhibition was -2.23%.

`CCOC(=O)CNC(=O)CC(c1cc(OC)c(OC)c(OC)c1)N1Cc2ccccc2C1=O` (stereo not given): the inhibition is 12.1%.

For `CCN(CC)c1ccc(C(=O)Nc2ccc3nc(N(CC)CC)cc(C)c3c2)cc1`, the inhibition is 4.52%.

As to `Cc1ccc2[nH]c(CSc3nnc(NC(=O)COc4ccccc4Cl)s3)cc(=O)c2c1`, the inhibition was -10.5%.

Take `CCc1nnc(NC(=O)CSc2nc3c([nH]c4ccccc43)c(=O)n2-c2ccc(C)cc2)s1`: the inhibition was 6.92%.

In the case of `Cc1ccc(C)c(-c2ccc(=O)n(Cc3ccc(F)cc3Cl)n2)c1`, the inhibition was -9.01%.

Consider `O=C(NC1CC2CCCC(C1)N2Cc1ccc(F)cc1)c1ccc(F)cc1` (stereo not given), for which the inhibition is active: 75.3%.

For `CCOC(=O)C1CCCN(C(=O)Cn2ncc3c4ccccc4n(Cc4ccc(F)cc4)c3c2=O)C1` (stereo not given), the inhibition is -15.1%.

Turning to `O=C(COc1ccccc1)Nc1sc2c(c1C(=O)Nc1ccccc1)CCCCC2`, the inhibition came to 5.12%.

In the case of `O=C(CCCCCn1c(=O)[nH]c2ccccc2c1=O)N1CCN(c2ccc(Cl)cc2)CC1`, the inhibition came to 21.4%.

As for `O=S(=O)(c1ccc(F)cc1)N1CCC(N2CCCCCC2)CC1`, the inhibition is active: 42%.

`O=C(CSc1ncn[nH]1)N1N=C2/C(=C/c3ccccc3)CCCC2C1c1ccccc1` (stereo not given): the inhibition was active: 33.3%.

Take `COC(=O)c1ccc(CNC(=O)c2nc(Cn3nc(C)c(Br)c3C)no2)cc1`: the inhibition was -3.78%.

Regarding `COc1cc2c(cc1OC)C(COc1cc(C)cc(C)c1)N(C(=O)c1ccc(S(=O)(=O)N3CCCC3)cc1)CC2` (stereo not given), the inhibition was -9.48%.

For the compound `O=C(CSc1nc2c([nH]c3ccccc32)c(=O)n1-c1cccc(Cl)c1)NCc1ccccc1`, the inhibition was -6.65%.

On to `CCC(C)Sc1nc2c([nH]c3ccccc32)c(=O)n1C` (stereo not given), for which the inhibition was -5.19%.

In the case of `COc1ccc(-c2nc(C)c(CCNC(=O)c3ccco3)s2)cc1`, the inhibition amounted to 22%.

As for `Cc1ccccc1COC(=O)c1ccc(-c2nnn(Cc3ccccc3F)n2)cc1`, the inhibition came to 0.602%.

On to `O=c1c(-c2cc(-c3ccc(F)cc3)nc3c2COc2ccc(Cl)cc2-3)coc2ccc(F)cc12`, for which the inhibition turned out to be 0.0412%.

As to `CC(=O)N1c2ccc(S(=O)(=O)N3CCN(c4cc(Cl)ccc4C)CC3)cc2CC1C` (stereo not given), the inhibition is -1.08%.

With `CC(=O)Nc1ccc(NC(=O)CSc2cn(CC(=O)N(C(C)C)C(C)C)c3ccccc23)cc1`, the inhibition stood at 27.8%.

Consider `Cc1ccc(-c2noc(CN(C3CCCCC3)S(=O)(=O)c3ccc(F)cc3)n2)cc1`, for which the inhibition was -22.1%.

Take `Cc1cc2oc(C(=O)NCCc3ccc(S(N)(=O)=O)cc3)cc(=O)c2cc1C`: the inhibition was -26.1%.

As to `COc1cc(C(=O)NCc2nnnn2-c2ccc(C)c(C)c2)cc(OC)c1OC`, the inhibition worked out at 7.31%.

Turning to `CCOc1ccccc1CN1C(=O)c2ccccc2C1C(=O)NC1CCCCCC1` (stereo not given), the inhibition worked out at 28.2%.

In the case of `COc1ccc(OCCn2cc(C(=O)c3ccco3)c3ccccc32)cc1`, the inhibition was found to be 21.4%.

Consider `CCC(=O)N1CCc2cc(S(=O)(=O)NC(Cc3ccccc3)C(=O)NCc3ccc(C)cc3)ccc21` (stereo not given), for which the inhibition is 3.57%.

`COC(=O)c1cc2occc2n1Cc1nc(-c2ccccc2C)oc1C`: the inhibition was -1.09%.

For `Cc1cc(C)n2nc(NCc3ccccc3Cl)nc2n1`, the inhibition was -20.3%.

As to `COc1ccc(CNc2nc(-c3ccco3)nn2S(=O)(=O)c2ccc3ccccc3c2)cc1OC`, the inhibition came to 12.1%.

On to `Cc1ccc(C)c(NC(=O)Cn2c(=O)n(Cc3nc(C)no3)c(=O)c3cc4c(cc32)OCO4)c1`, for which the inhibition was -5.38%.

In the case of `CCc1ccc(NC(=O)Cn2c(=O)n(Cc3ccc4c(c3)OCO4)c(=O)c3oc4ccccc4c32)cc1`, the inhibition was -2.17%.

Consider `Cc1cccc(N2C(=O)C(CC(=O)Nc3ccc(F)cc3)N(C3CCCC3)C2=O)c1` (stereo not given), for which the inhibition is -3.04%.

On to `Cc1ccc(S(=O)(=O)n2nc(-c3ccccc3)nc2NCc2ccccc2Cl)cc1`, for which the inhibition was determined as 5.55%.

Turning to `Cc1oc2ccc(O)c(CN3CCN(C)CC3)c2c1C(=O)Nc1ccc(C(C)C)cc1`, the inhibition is -10.2%.

As to `Cc1ccc(-c2cc(C(=O)N3CCN(S(=O)(=O)c4ccc(Br)s4)CC3)[nH]n2)cc1C`, the inhibition is -7.06%.

With `Cc1oc2ccc(O)c(CN(C)Cc3ccccc3)c2c1C(=O)Nc1cccc(C(F)(F)F)c1`, the inhibition is -9.09%.

`COc1ccc(C(=O)c2cn(CC(=O)Nc3ccc4c(c3)OCCO4)c3ccc(OC)cc3c2=O)cc1`: the inhibition was 1.28%.

Consider `COC(=O)[C@H]1[C@H]2C[C@H]3c4[nH]c5ccccc5c4CCN3C[C@H]2CC[C@@H]1O`, for which the inhibition was active: 86.8%.

Consider `COc1cc(NC(=O)Cn2c(=O)oc3cc(S(=O)(=O)N4CCCCCC4)ccc32)cc(OC)c1`, for which the inhibition was 7.24%.

On to `CCOc1ccc(C(=O)NCC(c2cccs2)N(C)C)cc1OCC` (stereo not given), for which the inhibition is active: 50.8%.

Consider `COc1cccc(C2=CC(c3ccc(OC)c(OC)c3OC)n3ncnc3N2)c1` (stereo not given), for which the inhibition is -3.55%.

Take `O=C(CSc1nc(-c2ccccc2)no1)N1CCN(c2ccccc2F)CC1`: the inhibition stood at 1.68%.

For the compound `O=C(Cn1c(=O)nc(-c2ccccc2)c2ccccc21)Nc1ccc(Cl)c(C(F)(F)F)c1`, the inhibition was 7.63%.

`CCc1ccc(CNC(=O)CCSCc2ccccc2F)cc1`: the inhibition was determined as 3.46%.

Regarding `Cc1cccnc1NC(=O)CCc1c[nH]c2ccccc12`, the inhibition was active: 31.2%.

On to `Cc1cccc(NS(=O)(=O)c2ccc3[nH]c(=O)ccc3c2)c1C`, for which the inhibition is -28%.

For `CCOc1ccc(-n2c(SCC(=O)N3CCCC3)nc3c([nH]c4ccccc43)c2=O)cc1`, the inhibition worked out at 1.83%.

In the case of `COC(=O)C(Cc1c[nH]c2ccccc12)NC(=O)COc1ccc(Cl)cc1Cl` (stereo not given), the inhibition was determined as 24.9%.

As for `CCN(c1cc(C)cc(C)c1)S(=O)(=O)c1nnc(NC(=O)c2cccs2)s1`, the inhibition was -26.7%.

As to `Cc1ccc(-c2ccc(=O)n(Cc3cc(C)ccc3C)n2)cc1`, the inhibition was -18.9%.

Consider `Cc1ccc(-c2nc3cccnc3s2)cc1NC(=O)C(C)C`, for which the inhibition amounted to 10.5%.

Consider `CC1=Nc2cc(C(=O)NCCc3ccc(Cl)cc3)ccc2Sc2ccc(C)cc21`, for which the inhibition was -19.5%.

In the case of `CCC(CC)C(=O)NC1CC(=O)N(c2ccc3c(c2)OCCO3)C1` (stereo not given), the inhibition is -5.9%.

Regarding `COc1ccc(CNc2ncnc3onc(C)c23)cc1`, the inhibition amounted to 6.1%.

Take `CCCNC(=O)c1ccc2c(c1)ncn2-c1ccc(C)cc1C`: the inhibition stood at 16.1%.

For the compound `COc1ccc(NC(=O)Cn2c(=O)oc3cc(S(=O)(=O)NC4CCCC4)ccc32)cc1OC`, the inhibition turned out to be 12.5%.

For the compound `CCOC(=O)c1c(NC(=O)CS(=O)(=O)c2ccc(C)cc2)sc2c1CCCCC2`, the inhibition is -9.35%.

As to `CC(CN(C)C)CN1c2ccccc2CCc2ccccc21` (stereo not given), the inhibition was active: 73.5%.

As to `CCc1ccc(CNC(=O)c2ccc3c(c2)N=C(C)c2cc(C)ccc2S3)cc1`, the inhibition is 7.53%.

As for `COC(=O)c1sccc1NC(=S)N1CCC(C(N)=O)CC1`, the inhibition was active: 36.5%.

Regarding `CN(C)CCNC(=O)c1ccc(-n2c(-c3ccccc3)cc3c2CCCC3)cc1`, the inhibition was found to be 14.7%.

With `CCCS(=O)(=O)Nc1cc(-c2cn3cccc(C)c3n2)ccc1C`, the inhibition was -24.6%.

`CC(C)Oc1ccc(CNC(=O)CCCn2c(=O)c3cccn3c3ccccc32)cc1`: the inhibition was -8.01%.

Consider `COc1ccc(-c2cc(C(F)(F)F)c(C#N)c(SCC(=O)Nc3ccc(F)cc3)n2)cc1`, for which the inhibition worked out at 4.28%.

In the case of `Cc1ccc(S(=O)(=O)N2CCCc3cc(NS(=O)(=O)c4ccc(F)c(C)c4)ccc32)cc1`, the inhibition worked out at 3.99%.

For `Cc1ccc(NCc2cccn2-c2nnc(N3CCC(C(=O)NC(C)C)CC3)s2)cc1`, the inhibition was found to be 7.37%.

`COc1ccc(-c2cn3nc(N4CCC(C(=O)NCc5ccccc5F)CC4)sc3n2)cc1`: the inhibition is 7%.

In the case of `COc1ccc(S(N)(=O)=O)cc1C(=O)NCCCN1CCN(c2ccccc2OC)CC1`, the inhibition was active: 77.4%.

As to `Cc1ccc(/C=N/NC(=O)c2nnn(-c3nonc3N)c2-c2cccs2)cc1`, the inhibition was active: 32%.

The record behind these values is PubChem BioAssay AID485344 (National Center for Advancing Translational Sciences (NCATS), 2010).
